Data from PMC12040169 (PLOS Biology, 2025).
The list shows a part of the results.

system: T1, C. trachomatis L2/434/Bu expressing GFP (CTL2-GFP); design: species or system HeLa; C. trachomatis total inclusion area by high-content imaging, normalised to DMSO; settings: total inclusion area; 28.5 h, 10 µM; inhibitor
T1 construct: L2/434/Bu GFP intracellular growth in HeLa cells
In short: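 Post-fluorescence-read fixation, DNA staining with Hoechst and high-content imaging; GFP inclusion area and number per well, and nuclei counts, used as proxies for bacterial growth and host viability.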

| Structure (SMILES) | % of control remaining |
| --- | --- |
| COc1ccc2c(C)c(C(=O)NC(C)Cc3ccccn3)oc2c1 (stereo not drawn) [CBK281424] | 99.0279 |
| CN1CCN(CCCCn2nc3n(c2=O)-c2ccccc2OC3(C)C)CC1 [CBK023953C] | 56.7491 |
| Cc1nc(-c2ccc(NC(=O)Cc3sc(C)nc3C)cc2)cs1 [CBK281404] | 50.887 |
| O=C1CCC(CNS(=O)(=O)c2ccccc2Cl)N1 (stereo not drawn) [CBK304850] | 30.8157 |
| COc1ccc(Cl)cc1N1CCN(Cc2cc(OC)c(OC)c(OC)c2)CC1 [CBK126406] | 11.9082 |
| COc1cc(S(=O)(=O)NC2CC(C)(C)NC(C)(C)C2)ccc1F [CBK266561] | 95.481 |
| Nc1nc(=O)n([C@@H]2O[C@H](CO)[C@H](O)C2O)cc1CO (stereo partly drawn) [CBK201160] | 107.488 |
| Cc1cc(C)n(CC(O)CN2C(=O)NC(C)(C)C2=O)n1 (stereo not drawn) [CBK264811] | 98.9081 |
| Cc1ccc(C(=O)NCc2cccc(COCc3ccco3)c2)cc1F [CBK297750] | 89.0805 |
| Cc1cc(COC(=O)N2CCC(CO)CC2)cc(C)n1 [CBK200152] | 94.4493 |
| Cc1ccc(C(=O)C(OC(=O)c2cc(O)nc3ccccc23)c2ccccc2)cc1C (stereo not drawn) [CBK265515] | 99.2903 |
| CN1C[C@@H](C(=O)N2CCCCCC2)[C@@]2(CCc3ccccc3C2=O)C1 [CBK284590] | 71.3417 |
| CCc1ccc2c(c1)C(CCNC(=O)c1ncoc1C(F)(F)F)C(=O)N2 (stereo not drawn) [CBK304725] | 83.1546 |
| Cn1c(-c2ccccc2O)n[nH]c1=S [CBK014577] | 45.3291 |
| Cc1ccc(NC(=O)C2CC(=O)Nc3nc4ccccc4n32)cc1 (stereo not drawn) [CBK288134] | 93.6929 |
| Cc1cccc(-n2c(CCc3ccccc3)nnc2SCC(=O)c2ccccc2)c1 [CBK266369] | 136.395 |
| COc1ccc(-c2cc[nH]n2)c(OC)c1OC [CBK022957C] | 86.4351 |
| Fc1cccc(-c2nnc(SCc3nc4ccccc4[nH]3)n2-c2ccccc2)c1 [CBK263256] | 101.878 |
| CN1CCC(N(C)C(=O)NCCOc2ccccc2)C1 (stereo not drawn) [CBK156018] | 63.7776 |
| CN1C(=O)CC2(C1=O)C(=O)N(CCN1CCCC1=O)c1ccc(F)cc12 (stereo not drawn) [CBK075463] | 98.751 |
| COc1ccc(CC(=O)N(C)CCN2CCCCC2)cc1C [CBK282728] | 134.928 |
| CN(Cc1ncc[nH]1)C(=O)c1cn(Cc2cccc(C(F)(F)F)c2)nn1 [CBK306768] | 93.1754 |
| O=C(CSc1ncnc2scc(-c3ccc(Cl)cc3)c12)Nc1nsc(-c2ccccc2)n1 [CBK266473] | 116.778 |
| CC1(C)Cc2nc(N3CCOCC3)ncc2C(NC(=O)C2CCCC2)C1 (stereo not drawn) [CBK307687] | 57.9123 |
| O=[N+]([O-])c1ccc(CSc2nnc(-c3cnccn3)n2Cc2ccco2)cc1 [CBK267585] | 95.5437 |
| Cc1ccc(F)c(NS(=O)(=O)Cc2ccccc2)c1 [CBK038438] | 86.9146 |

| Structure (SMILES) | % of control remaining |
| --- | --- |
| Cc1cccc(C(C)(C)C)c1NC(=O)N1CCC(Cc2ccccc2)CC1 [CBK043962] | 67.2649 |
| Nc1ncc(-c2ccc(OC(F)(F)F)cc2)nc1-c1ccc(O)cc1 [CBK122506] | 92.1377 |
| COc1ccc(Cc2nc(CCNC(C)=O)n(CC(F)(F)F)n2)cc1 [CBK307287] | 47.4439 |
| CC(Oc1ccccc1)C(=O)NCCCc1ccccc1 (stereo not drawn) [CBK264060] | 99.2343 |
| C[C@@H](Nc1cncc(-c2cccc3ccccc23)n1)c1ccccc1 [CBK065646] | 99.9636 |
| O=C(Cc1ccccc1[N+](=O)[O-])NNC(=S)Nc1ccc(F)c(Cl)c1 [CBK266904] | 101.816 |
| C[C@@H](Cn1nc(-c2cccs2)oc1=O)NC(=O)C1CCCC1 [CBK284337] | 67.884 |
| CN(C)CCN(C)c1nc(-c2cc(C(F)(F)F)cc(C(F)(F)F)c2)cn2ccnc12 [CBK037971] | 111.868 |
| CC(=O)Nc1cccc(C(=O)N(Cc2ccccn2)CC2CCCO2)c1 (stereo not drawn) [CBK306867] | 54.395 |
| C[C@@H](Nc1cncc(-c2ccc3c(c2)OCO3)n1)c1ccccc1 [CBK065954] | 94.1378 |
| Cc1ccc(S(=O)(=O)n2nncc2C)cc1 [CBK001921] | 61.5481 |
| CC(C)[C@H](CO)Nc1nccnc1-c1ccc(C(=O)N2CCOCC2)cc1 [CBK037012] | 136.595 |
| COc1ccc([C@@]23CC[C@@H](CNC(=O)c4ccc(C(F)(F)F)cc4)C[C@@H]2N(C)CC3)cc1OC [CBK042195] | 87.999 |
| CSc1ccccc1C(=O)N1CCN(S(=O)(=O)c2sc(C(=O)O)c(C)c2C(=O)O)CC1 [CBK297149] | 80.8841 |
| CCOC(=O)CCCCNC(O)C(Cl)(Cl)Cl (stereo not drawn) [CBK261003C] | 97.1209 |
| C[C@@H](Nc1cncc(-c2ccncc2)n1)c1ccccc1 [CBK066055] | 102.577 |
| O=C(O)CCC(=O)Nc1ccc2c(c1)oc1ccccc12 [CBK261597] | 101.941 |
| O=C(NC1CCCCC1)O[C@@H]1CO[C@H]2[C@@H]1OC[C@@H]2Nc1nccc(-c2cccs2)n1 [CBK289514] | 97.7794 |
| O=C(O)CCSc1nc(-c2ccccc2)c(-c2ccccc2)n1-c1ccccc1 [CBK264837] | 88.1581 |
| C=CCN1C(=O)CC2(C1=O)C(=O)N(C)c1ccc(OC)cc12 (stereo not drawn) [CBK075158] | 102.354 |
| O=C1CN(c2cccc(C(F)(F)F)c2)C(=O)N1c1ccc(Cl)cc1 [CBK122769] | 85.0118 |
| CN(C)CCNc1c(N)c(=O)oc2ccccc12 [CBK261472] | 101.829 |
| Cc1ccc(NC(=O)CSc2nnc(C(O)c3ccccc3)n2-c2ccccc2)c(C)c1 (stereo not drawn) [CBK266072] | 96.72 |
| CC(=O)NCC1CCC2(CCN(c3nc(C)nc(C)c3C)CC2)O1 (stereo not drawn) [CBK307404] | 75.8711 |
| CCNC(=O)N(C)C1CCN(c2ncnc3ccccc23)CC1 [CBK305537] | 92.2772 |
